PubChem BioAssay AID360 (National Center for Advancing Translational Sciences (NCATS), 2006)
In all, about 48,000 compounds went through this assay and about 550 (1.1%) were called active. Inconclusive results (about 4%) are left out. No stated cut-off is given here; in the data, active means potency below about 15 µM; inconclusive means mostly about 16 µM to 33 µM; inactive means weaker than that. The list shows a part of the results.

target: Lysosomal acid glucosylceramidase (Homo sapiens) (UniProt P04062); assay: Glucocerebrosidase; details: purified enzyme, resorufin glucoside fluorescence (screen aimed at inhibitors), 20 min; series mostly up to 77 µM;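 further: the screen sought inhibitors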
UniProt P04062, sequence (P04062 whole entry, looked up): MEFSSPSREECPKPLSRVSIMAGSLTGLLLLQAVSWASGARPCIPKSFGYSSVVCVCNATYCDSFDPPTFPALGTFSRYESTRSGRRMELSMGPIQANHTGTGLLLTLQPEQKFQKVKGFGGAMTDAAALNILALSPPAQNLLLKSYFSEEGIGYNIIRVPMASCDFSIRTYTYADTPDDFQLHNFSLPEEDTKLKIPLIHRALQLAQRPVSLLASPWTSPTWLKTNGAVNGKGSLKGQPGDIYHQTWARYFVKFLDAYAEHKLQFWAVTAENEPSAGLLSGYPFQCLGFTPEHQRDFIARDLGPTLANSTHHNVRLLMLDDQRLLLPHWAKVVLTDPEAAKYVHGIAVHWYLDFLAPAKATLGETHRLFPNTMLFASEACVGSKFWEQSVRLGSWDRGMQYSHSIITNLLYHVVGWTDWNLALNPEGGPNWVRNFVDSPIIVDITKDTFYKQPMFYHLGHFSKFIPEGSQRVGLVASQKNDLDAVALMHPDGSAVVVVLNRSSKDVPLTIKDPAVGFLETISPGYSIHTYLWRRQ
Summary of the method: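 Normal human glucocerebrosidase (0.2 nM final) was assayed with resorufin β-D-glucopyranoside (30 uM final) in 50mM citric acid/KH2PO4, 10mM sodium taurocholate, 0.01% tween-20, pH 5.9. Compounds were titrated; fluorescence (Ex 548, Em 600) read after 20 min at RT.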
Potency means the concentration at half of the fitted maximal effect.

Potency, inactive:
CC(=O)N(CC(=O)Nc1nn(-c2ccccc2)nc1C(N)=O)Cc1ccccc1 > 76.9 µM, Cc1cccc(NC(=O)Cn2c(=O)n(Cc3ccco3)c(=N)c3c4c(sc32)COC(C)(C)C4)c1 > 76.9 µM, Cc1cccc(C)c1N(CC(=O)Nc1cccc(N(C)S(C)(=O)=O)c1)S(C)(=O)=O > 76.9 µM, COC(=O)Nc1cc(C(F)(F)F)ccc1N1CCN(c2ccccc2)CC1 > 76.9 µM, Cc1cc(C2C(C#N)=C(N)SC(N)=C2C#N)c(C)s1, CCN(CC)C(=O)Cn1nnc(-c2ccc(C)o2)n1 > 76.9 µM, O=C(CN(Cc1ccco1)C(=O)CNS(=O)(=O)c1ccccc1)NCc1ccccc1 > 76.9 µM, O=C(O)C1C2C=CC(C3CC23)C1C(=O)NCCc1ccccc1 (configuration not stated) > 76.9 µM, CCS(=O)(=O)N1CCCC(C(=O)NCc2ccccc2Cl)C1 (configuration not stated) > 76.9 µM, CC12C(=O)N(n3cnnc3)C(=O)C1C1C=CC2C1 (configuration not stated) > 76.9 µM, Nc1ccc2c(C(F)(F)F)cc(=O)oc2c1 > 76.9 µM, CC(C)(CN1CCCCC1)NS(=O)(=O)c1ccc(Cl)cc1 > 76.9 µM, Cc1ccc2cc3cc(C(=O)N(C)C4CCCCC4)oc3nc2c1 > 76.9 µM, O=C(CN1CCOCC1)Nc1nc(-c2ccc3c(c2)CCN3S(=O)(=O)c2ccccc2)cs1 > 76.9 µM, CCOCCn1c(N2CCN(c3ccc(OC)cc3)CC2)nc2c1c(=O)n(C)c(=O)n2C > 76.9 µM, COC(=O)C1C(c2ccccc2)C(C(=O)N2CCOCC2)C1c1ccccc1 (configuration not stated) > 76.9 µM, Nc1nonc1-c1noc(COc2ccccc2Cl)n1 > 76.9 µM, CCOC(=O)c1c(C)[nH]c(C(=O)NCc2ccccc2OC)c1C > 76.9 µM, CC(=O)N1CCN(c2ccc(Nc3nc(C)nc4c3oc3ccccc34)cc2)CC1 > 76.9 µM, COc1ccccc1-n1cnnc1SCC(=O)N1CCN(S(=O)(=O)c2ccccc2)CC1 > 76.9 µM, Cc1cc(C)n(-c2nncn2/N=C/c2ccccc2F)n1 > 76.9 µM, COc1cc2nc(C)sc2cc1SC > 76.9 µM, Cn1cccc1C1NC(=O)c2c(sc3c2CCC(C(C)(C)C)C3)N1 (configuration not stated) > 76.9 µM, CC(=O)C1=C(O)C(=O)N(CCC(=O)O)C1c1cccc(F)c1 (configuration not stated) > 76.9 µM, Cc1cc(NC(=O)CSc2nnc(C(C)N(C)C)n2Cc2ccccc2)no1 (configuration not stated) > 76.9 µM, C=CCSc1nnc(NC(=O)CSc2nc(CCC)cc(=O)[nH]2)s1 > 76.9 µM, Cc1cc(C)cc(NC(=O)CSc2nnc(-c3ccccc3Br)o2)c1 > 76.9 µM, CCN1CCN(CC(O)COc2ccc(C)c(C)c2)CC1 (configuration not stated) > 76.9 µM, Cc1cc(NC(=O)CCC(=O)N(c2cccc(F)c2)C(C(=O)NC2CCCC2)c2ccncc2)no1 (configuration not stated) > 76.9 µM, COc1ccc(OC)c(CNC(=O)COc2cc(=O)n(C)c3ccccc23)c1 > 76.9 µM, O=C(Nc1ccc(NC(=O)C2CC2)cn1)c1ccccc1Cl > 76.9 µM, O=C(Nc1nc2ccccc2n1CCOc1ccccc1)c1ccco1 > 76.9 µM, CC(=O)Nc1nc(-c2cccs2)cs1 > 76.9 µM, Cc1cn2c(-c3cccnc3)nnc2s1 > 76.9 µM, C=CCn1c(-c2ccccc2)nc2nc3ccccc3nc21 > 76.9 µM, COC(=O)NCCOC(=O)N(O)c1ccc(Br)cc1 > 76.9 µM, CCn1c(CSc2nc3ccccc3[nH]2)n[nH]c1=S > 76.9 µM, CCCOc1ccc(C2C(C(=O)c3ccc(C)o3)=C(O)C(=O)N2Cc2cccnc2)cc1 (configuration not stated) > 76.9 µM, CCOC(=O)N1CCN(Cc2nc3c(c(=O)n(C)c(=O)n3C)n2Cc2cc(C)ccc2C)CC1 > 76.9 µM, COc1ccccc1NC(=O)c1cc(Sc2nncn2C)nc2ccccc12 > 76.9 µM, CC(C)COC(=O)N1CCCC1C(=O)Nc1nccs1 (configuration not stated) > 76.9 µM, Cc1nc2nc(Cc3ccccc3)nn2c(C)c1Cl > 76.9 µM, O=C(CSc1nnc(-c2cccs2)n1-c1ccccc1)N1CCCC1 > 76.9 µM, CC(C)Oc1cccc(C(=O)Nc2ccccc2N2CCOCC2)c1 > 76.9 µM, C=CCN(C(=O)CCC(=O)Nc1cc(C)on1)C(C(=O)NC1CCCC1)c1cccnc1 (configuration not stated) > 76.9 µM, Cc1c(C#N)c2ccccc2n1CC(=O)NCc1cccnc1 > 76.9 µM, O=C(O)CSCc1c(F)cccc1Cl > 76.9 µM, CCOC(=O)c1c(CN2CCN(C)CC2)oc2ccc(OC)cc12 > 76.9 µM, Cc1cc2nnc(SC3CCOC3=O)n2c2ccccc12 (configuration not stated) > 76.9 µM, CCC1Oc2ccc(Cl)cc2N(CC(=O)O)C1=O (configuration not stated) > 76.9 µM, O=C(COc1ccc(Cl)cc1)NCc1nnc(SCC(=O)Nc2ccccc2)o1 > 76.9 µM, Cc1cc(N(CN2CCCC2=O)C(=O)c2ccc(F)cc2)no1 > 76.9 µM, CC(C)c1cc(NC(=O)CSc2nnc(-c3ccccc3F)n2C)on1 > 76.9 µM, COc1cc2c(cc1OC)C(C(=O)NCCN1CCOCC1)C1c3ccccc3CCN1C2=O (configuration not stated) > 76.9 µM, N#CCSc1nc2c(c(C3CC=CCC3)c1C#N)CCC2 (configuration not stated) > 76.9 µM, CCCn1c(=O)c(Cc2ccccc2)c(O)c2ccccc21 > 76.9 µM, Cc1cc(NC(=O)CSc2nnc(C3CC3)n2C)no1 > 76.9 µM, COc1cc(NC(=O)Cc2ccccc2OC)cc(OC)c1 > 76.9 µM, COc1ccc(NC(=O)N2CCC(O)(c3cccnc3)CC2)c(OC)c1 > 76.9 µM, O=C(c1n[nH]c2c1CCCC2)n1ccnc1 > 76.9 µM, COc1ccc(C2=C(C)CC(C)(C)NC2=O)cc1OC > 76.9 µM, COc1ccccc1NC(=O)c1cc(Cl)ccc1NC(=O)c1ccco1 > 76.9 µM, O=c1c2c(nc3n1CCCCC3)-c1ccccc1CC21CCCC1 > 76.9 µM, COc1ccc(-c2nnc(SCC(=O)N3CCOCC3)o2)cc1 > 76.9 µM, CCOC(=O)N1CCN(C(=O)c2ccc(NC(=O)c3ccc(C)cc3)cc2)CC1 > 76.9 µM, O=C(NCc1cccnc1)C1c2ccccc2C(=O)N1C1CCCCCCC1 (configuration not stated) > 76.9 µM, COc1ccc(OC(=O)c2cccc(S(=O)(=O)N3CCCC3)c2)cc1 > 76.9 µM, O=C(OCc1cc(=O)n2cc(Br)ccc2n1)C1COc2ccccc2O1 (configuration not stated) > 76.9 µM, CCCn1c(SCC(=O)Nc2cccc(C(=O)OCC)c2)nnc1-c1ccoc1C > 76.9 µM, COc1cc(C2N(c3ccccn3)C(=O)C3CCCN32)cc(OC)c1OC (configuration not stated) > 76.9 µM, Cc1cc(-c2ccccc2)nc2cc(C(N)=O)nn12 > 76.9 µM, CC(=O)c1cccc(NC(=O)COc2ccccc2)c1 > 76.9 µM, CCOC(=O)c1cccc(NC(=O)CSc2nnc(COc3ccccc3)n2CC)c1 > 76.9 µM, COc1ccc2[nH]c(C)c(CN3CCCC(C)C3)c(=O)c2c1 (configuration not stated) > 76.9 µM, CCCCSc1nc2c(cc1C#N)CCC2 > 76.9 µM, N#Cc1c(NC(=O)CSc2nnnn2C2CCCCC2)sc2c1CCCC2 > 76.9 µM, COc1cc(C)c(S(=O)(=O)N2CCOCC2)cc1C(C)C > 76.9 µM, CC(C)c1cc(C(=O)NCc2cccnc2)no1 > 76.9 µM, NC(=O)NC(CC(=O)OCC(=O)NC(=O)NCc1ccco1)c1ccc(Cl)cc1 (configuration not stated) > 76.9 µM, Cc1ccc2nc(-c3ccc(SCC(=O)Nc4cc(C)on4)nc3)[nH]c2c1 > 76.9 µM, O=C1c2oc3ccccc3c(=O)c2C(c2cccc(Br)c2)N1Cc1ccco1 (configuration not stated) > 76.9 µM, O=C(Cn1cnc2c(nnn2Cc2ccc(Cl)cc2)c1=O)NCc1ccco1 > 76.9 µM, CCOC(=O)N1CCC(NC(=O)c2cccc3c2C(=O)N(Cc2cccnc2)C3)CC1 > 76.9 µM, O=C(COC(=O)C1COc2ccccc2O1)NC1CCS(=O)(=O)C1 (configuration not stated) > 76.9 µM, CCCNC(=O)Cn1cccc1C(=O)c1ccccc1 > 76.9 µM, O=C(C1CCN(S(=O)(=O)N2CCC3(CC2)OCCO3)CC1)N1CCOCC1 > 76.9 µM, CC(C)C(C(=O)Nc1cccnc1)N1C(=O)c2ccccc2C1=O (configuration not stated) > 76.9 µM, Clc1ccc(OCc2nn3c(C4CCCCC4)nnc3s2)c(Cl)c1 > 76.9 µM, Nc1ncnc2c1CCC2 > 76.9 µM, CCc1cccc(NC(=O)CN2C(=O)NC3(CCCCCCC3)C2=O)c1 > 76.9 µM, CSc1nnc(Cc2ccc3c(c2)OCO3)o1 > 76.9 µM, CCOc1ccccc1NC(=O)CCN1CCN(S(=O)(=O)c2ccc(OC)cc2)CC1 > 76.9 µM
